Measurements published in PubChem BioAssay AID1508624 (National Center for Advancing Translational Sciences (NCATS), 2021).
The whole screen tested about 48,000 compounds, of which about 120 (0.25%) were called active. Inconclusive results (about 4%) are left out. Calls follow the shape of the dose curve; as a rule, active = well fitted activation curve with a large enough effect; inconclusive = small, poorly fitted or top-dose-only effect, or another doubt; inactive = no such curve, though single readings can be large or run the other way. This is one part of the list.

Test: Primary qHTS for Identification of Small Molecule Activators of Huntingtin-Antisense Promoter Activity; also: nearly all actives have a fitted effect of over 55% in size
Conditions: HEK293 HTT-AS promoter firefly luciferase reporter (activity 0% = vehicle and -100% = no light), 24 h; series mostly up to 57.5 µM; activity change, positive = activation: at the top concentration
Method in brief: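 Luminescence was read after Dual-Glo reagent and a 10 min room-temperature incubation. Values were normalized to vehicle (0% activity) and zero RLU (-100% activity). Reporter HEK293 cells had been exposed to compounds (up to 57.5 uM final) for 24 h.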

Activity change, positive = activation, inactive:
O=C(COc1ccccc1)Nc1c(C(=O)N2CCN(c3ccc(F)cc3)CC2)oc2ccccc12 -7.21%, Cn1c(=O)n(Cc2ccccc2Cl)c(=O)c2c1nc1n2CCN1c1ccccc1 -17.6%, COc1cccc(CNC(=O)CSc2cc(C)[nH]c(=O)n2)c1 -8.88%, Cc1ccc(C(=O)COC(=O)CCCC(=O)Nc2cc(C(F)(F)F)ccc2Cl)cc1C -4.95%, Cc1c(Cl)cccc1NC(=O)CSc1nc(=O)n(Cc2ccncc2)c2c1CCC2 -7.39%, CCc1nn(CCCN2CCN(c3cccc(Cl)c3)CC2)c(=O)n1CCOc1ccccc1 -35.8%, COc1ccc(C(=O)NCc2ccc3c(c2)CCN3C(C)=O)cc1OC -15%, Cc1oc(-c2ccc(C(=O)NCCCOC(C)C)cc2)nc1CS(=O)(=O)c1ccccc1 -27.5%, CCn1ccc2cc(S(=O)(=O)N3CCCN(C(=O)Nc4ccc(C)cc4Cl)CC3)ccc21 -16%, Cc1cc(Nc2ccccc2F)n2nc(Cc3ccc(Cl)cc3)nc2n1 -18.2%, COc1cc2c(cc1OC)n(CC(=O)Nc1ccc(C)cc1C)c(=O)n1nc(-c3ccccc3)nc21 -10.5%, Cc1ccc(C)c(N(C)C(=O)CCNC(=O)Cn2cnc3ccccc3c2=O)c1 -31.9%, CC(C)CC(=O)Nc1nnc(S(=O)(=O)N(C)c2ccc(Cl)cc2)s1 -25%, Cc1c(-c2ccc(Cl)cc2)c(=O)oc2c(CN3CCN(C)CC3)c(O)ccc12 -19.2%, O=C(CNC(=O)c1ccccc1Cl)OCc1cc(=O)n2nc(C3CC3)sc2n1 -3.45%, CC1CCc2c(sc3nc(-c4cc5ccccc5oc4=O)nc(Cl)c23)C1 (stereo not drawn) 0.64%, CCOC(=O)C1CCCN(C(=O)c2cc3c(Cl)nc4ccccc4c3s2)C1 (stereo not drawn) -84%, COc1cccc2sc(N(Cc3cccnc3)C(=O)C3CCCCC3)nc12 -27.7%, CCOc1ccc(C2c3c(-c4ccccc4O)n[nH]c3C(=O)N2Cc2cccnc2)cc1OC (stereo not drawn) 9.79%, O=S(=O)(c1cccc2cnccc12)N1CCCNCC1, CC(C)c1nn2c(=O)cc(COC(=O)c3cccc(NC(=O)c4ccccc4F)c3)nc2s1 6.05%, CCC1Oc2ccc(C)cc2N(CC(=O)NCc2ccc(F)cc2)C1=O (stereo not drawn) -1.99%, O=C(Nc1cccc(Cl)c1)C(Cc1ccccc1)n1cccc1 (stereo not drawn) -26.4%, O=C1CC(c2ccccc2)Cc2[nH]c(=O)c(C(=O)Nc3ccc(F)cc3)cc21 (stereo not drawn) -6.57%, CCOc1ccc(CCNC(=O)CCCc2nnc3n(CCCOC)c(=O)c4sccc4n23)cc1 -1.54%, Cc1c(C(=O)N2CCCCCC2)c(S(=O)(=O)Nc2ccc(OC(F)(F)F)cc2)c(C)n1C -17.6%, CCOC(=O)c1ccc(NC(=O)CSc2cc(-c3ccccc3)nc(C)n2)cc1 -27.5%, COc1ccc(N2C(=O)C(CC(=O)Nc3ccc(Cl)cc3)N(Cc3ccc4c(c3)OCO4)C2=O)cc1 (stereo not drawn) 0%, COc1ccc(NC(=O)CCc2nc3cccnc3n2-c2ccccc2)c(OC)c1 -15.1%, Cc1cccc2sc(N(Cc3cccnc3)C(=O)CCS(=O)(=O)c3ccccc3)nc12 10.6%, CCOC(=O)c1c(NC(=O)c2cc(=O)c3cc(Cl)ccc3o2)sc(C)c1C -2.51%, COc1cc(C(=O)Nc2ccccc2OCc2cc(=O)n3c(C)csc3n2)cc(OC)c1OC -3.06%, Cc1ccc(C)c(N2CCN(C(=O)CN3CCSc4ccccc43)CC2)c1 -29.6%, Cc1cccc(-c2nc(SCc3cc(=O)c4cccc(F)c4[nH]3)n[nH]2)c1 -40.8%, CCN1CCN(C(c2ccc(C)cc2)c2sc3nc(-c4ccco4)nn3c2O)CC1 (stereo not drawn) -0.917%, CCOc1ccc(CCNC(=O)CSc2nnnn2-c2ccccc2Cl)cc1OCC -25.2%, COCCn1c(=N)c(C(=O)NCC2CCCO2)cc2c(=O)n3ccccc3nc21 (stereo not drawn) -0.92%, O=C(NCCS(=O)(=O)N1CCN(c2ccccc2F)CC1)c1ccccc1C(F)(F)F -22%, COc1cccc(CNC(=O)Cn2c(=O)cc(C(F)(F)F)c3c(C)nn(C)c32)c1OC -6.9%, CCOC(=O)c1ccc2c(c1)sc1nc(-c3ccc(OCC)cc3)cn12 -7.13%, Fc1ccc(F)c(Nc2c3c(nc4ccc(Cl)cc24)CCC3)c1 -51.8%, CCN(CC)CCCNC(=O)c1c2c(nc3ccccc13)C(=O)N(C1CCCCC1)C2 3.45%, Cc1ccccc1OCC(=O)NCC(c1ccc(Cl)cc1)N1CCOCC1 (stereo not drawn) -30.1%, O=C(Nc1cccc2cccnc12)c1cccc2c(Br)cccc12 0.385%, O=C1c2oc3ccccc3c(=O)c2C(c2ccccc2F)N1Cc1ccc2c(c1)OCO2 (stereo not drawn) -20.3%, CCN(CC)CCNC(=O)c1sc2nc(C)cc(C)c2c1-n1cccc1 -10.7%, COc1ccc(-n2c(Cc3ccccc3)nnc2SCc2nc(-c3ccccc3C)no2)cc1 -36.7%, Cc1ccc2onc(CNC(=O)N(C)Cc3ccccc3)c2c1 -0.563%, COc1ccc(NC(=O)Cn2ccn(Cc3ccccc3)c(=O)c2=O)cc1Cl -26.9%, CCc1ccccc1NC(=O)Cn1c(C(=O)OC)cc2oc(C)cc21 10.5%, CCOC(=O)c1ccc(NC(=O)c2cccc3c(=O)c4c([nH]c23)CCCC4)cc1 -8.48%, O=C1c2[nH]nc(-c3ccccc3O)c2C(c2cccc(Br)c2)N1Cc1ccncc1 (stereo not drawn) -24.2%, CN(C(=O)CSc1cn(CC(=O)N2CCCC2)c2ccccc12)c1ccccc1 -4.65%, COc1cccc(NC(=O)CSc2cc(C)[nH]c(=O)n2)c1 -2.9%, CCN(CC)c1nn2c(=O)c(C(=O)NCc3cccc(OC)c3OC)cnc2s1 -6.38%, CCCNC(C)(C)COC(=O)c1ccccc1 -10.1%, COCCCNC(=O)c1sc2nc(C)c(C(=O)Nc3ccc(Cl)cc3)c(-c3ccc(Br)cc3)c2c1N -3.47%, CC1N=C2c3ccccc3N=C(SCC(=O)NCc3ccc(Cl)cc3)N2C1=O (stereo not drawn) 2.3%, COc1cccc(-c2n[nH]c3c2C(c2cccc(O)c2)N(C)C3=O)c1 (stereo not drawn) -8.62%, CCS(=O)(=O)N1CC(=O)N(c2cccc(C)c2C)C(C)(C(=O)NC2CCCCCC2)C1 (stereo not drawn) -4.5%, COc1ccc(CNC(=O)c2cnn(-c3ccc(OC)cc3)c2C2CCN(C(=O)OC(C)(C)C)CC2)cc1 -33%, Cc1nc(SCC(=O)Nc2ccccc2Cl)cc(-c2ccccc2)n1 -12.1%, Cc1c2cnn(-c3ccccc3)c(=O)c2c(C)n1CC(=O)N1CCN(c2cccc(Cl)c2)CC1 -13%, CCOc1ccccc1NC(=O)c1c(NC(=O)Cc2ccccc2)sc2c1CCCC2 -8.67%, Cn1cc(C(=O)N2CCN(c3cccc(Cl)c3)CC2)c(=O)c2cc(S(=O)(=O)N3CCCC3)ccc21 -2.53%, COc1ccc(C)cc1NC(=O)CN1CCCN(S(=O)(=O)c2ccc(Br)cc2)CC1 -26.8%, COC(=O)c1cc(OC)c(OC)c(OC)c1NC(=O)c1cc(=O)n(C)c(=O)n1C -11%, CCOc1ccc(NC(=O)CSc2ccc3ccccc3n2)cc1 8.3%, COCCCNC(=O)CN1C(=O)COc2ccc(S(=O)(=O)N3CCOCC3)cc21 -16%, O=C(O)Cc1cccc2ccccc12, O=C(CCNS(=O)(=O)c1cccc2nonc12)Nc1ccc(F)cc1 -4.22%, COC(=O)c1cccc(Nc2c(-c3ccc(O)cc3)nc3nc[nH]n23)c1 -3.22%, COc1ccc(N2CCN(C(=O)c3cn(C4CCCCC4)c(=O)c4c3c3ccccc3n4C)CC2)cc1 -24.1%, O=C(Cn1ncc2c3ccccc3n(Cc3ccc(F)cc3)c2c1=O)NC1CCCCCC1 -12.6%, CCOC(=O)c1cc(-c2ccccc2)n(-c2cccc(C(=O)NC(C)CC)c2)c1C (stereo not drawn) -26.9%, Cc1ccc(N(C)S(=O)(=O)c2ccc(-c3cnc(C4CC4)o3)cc2)cc1 -36.1%, COc1ccc(Nc2nc(-c3ccccc3)c3cc(Br)ccc3n2)cc1 -10.8%, CCn1c(CN2CCCCC2)nc2cc(NC(=O)COc3cc(C)ccc3C(C)C)ccc21 -21.8%, CC(C)Oc1ccc(CNC(=O)c2ccc3c(c2)N(Cc2ccc(F)cc2)CCS3)cc1 -20.9%, Clc1ccccc1CNc1nc2ccccc2c2nc(-c3ccccc3)nn12 -22.4%, O=C(C1CCCCC1)N(Cc1cccnc1)c1nc2c(F)cccc2s1 -33.3%, Cc1ccc(C)c(NC(=O)N2CCN(c3nnc(C)c4c(C)n(-c5ccccc5)nc34)CC2)c1 -4.16%, COc1cc2c(cc1OC)C(COc1ccccc1OC)N(C(=O)c1ccc(S(=O)(=O)N3CCCC3)cc1)CC2 (stereo not drawn) -19%, Cc1cccc(OCC(=O)Nc2c(C(=O)N3CCN(c4ccccc4)CC3)oc3ccccc23)c1 -10.9%, COc1ccc(N2CCN(c3oc(-c4ccccc4C)nc3S(=O)(=O)c3ccccc3)CC2)cc1 -11.7%, COc1cc(NC(=O)Cn2nc(Cc3cccnc3)c3ccccc3c2=O)cc(OC)c1OC -4.45%, CCc1nc2ccccc2n1CCCCOc1ccc(Cl)cc1 -52%, CC(NCCc1ccc(O)cc1)C(O)c1ccc(O)cc1 (stereo not drawn) -10%, CCOc1ccccc1CNC(=O)CCCn1nc(C)c2sc3ccccc3c2c1=O 1.76%, Cc1cccc(CSc2nc3ccncc3n2Cc2ccc(C(=O)O)cc2)c1 4.31%, Cc1ccc(OCc2ccc(-c3nc(C#N)c(N4CCN(c5cccc(Cl)c5)CC4)o3)o2)cc1 -15.2%, Cc1nc2c([nH]1)c(=O)n(C)c(=O)n2Cc1ccco1 -8.92%, CC1=C(C(=O)Nc2cccc(Cl)c2)C2(CCCCCC2)OC1=O -20.2%, COc1ccccc1NC(=O)Cn1c(=O)n(CCc2ccccc2)c(=O)c2sc3ccccc3c21 -3.98%, COc1cc(NC(=O)Cn2nc(C(F)(F)F)c3c2CCCC3)cc(OC)c1OC -34.4%, Cc1cccc(C)c1NC(=O)N1CCC(C(N)=O)(N2CCCCC2)CC1 1.35%, CCOC(=O)c1ccc(NC(=O)c2c(NCc3cccc(OC)c3)sc3c2CCC3)cc1 -0.0862%, CC(C)c1ccc(C(=O)Nc2ccc(-c3nc4ccccc4s3)c(Cl)c2)cc1 -16.6%
